ChEMBL document CHEMBL4373723 (J Med Chem, 2019)
Calls of active or inactive are those of the source. No cut-off for these calls is given here. Peptide text beside a SMILES is read from it.

Species on record: Homo sapiens
Test: Modulation of Frizzled in human Caco2 cells assessed as protection against 0.25 to 1 ng/ml TcdB-induced cell rounding at 50 uM incubated for 24 hrs by phalloidin conjugated AlexaFluor488 dye based fluorescence microscopy relative to control

CSCC[C@H](NC(=O)[C@@H](NC(=O)[C@H](Cc1cnc[nH]1)NC(=O)[C@H](CO)NC(=O)[C@H](Cc1c[nH]c2ccccc12)NC(=O)[C@H](Cc1ccccc1)NC(=O)[C@H](CCC(=O)O)NC(=O)[C@H](CC(C)C)NC(=O)[C@H](CC(=O)O)NC(=O)[C@H](CC(=O)O)NC(=O)[C@H](CO)NC(=O)[C@@H]1CCCN1C(=O)[C@H](CC(C)C)NC(C)=O)C(C)C)C(=O)N[C@@H](Cc1ccc(O)cc1)C(N)=O (Ac-LPSDDLEFWSHVMY-NH2)
Activity: inactive
